# Source: the supplement of paper PMC8728848
# The other results are listed elsewhere or left out.
# Legend:
# Assay in all cases: glycan array binding signal (z-score within array); higher = stronger binding
# Conditions in all cases: glycan notation: IUPAC condensed, linker removed; mutation: N288D, K313I
# [1] = target: Gal(b1-4)GlcNAc(b1-2)[Gal(b1-4)GlcNAc(b1-6)]Man(a1-6)[Gal(b1-4)GlcNAc(b1-2)Man(a1-3)]Man(b1-4)GlcNAc(b1-4)[Fuc(a1-6)]GlcNAc
# Method in brief: (§1)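 Glycan array data came from 3228 arrays in the Consortium for Functional Glycomics database, and only arrays with an available protein sequence were kept. Glycan names were put into IUPAC-condensed notation, and columns mapping to the same glycan were averaged. The binding signal is a within-array Z-score, averaged across arrays of one protein sequence run at different concentrations or buffers and across linkers. A negative Z-score can be read as non-binding.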
# [2] = target: Gal(b1-4)GlcNAc(b1-2)[Gal(b1-4)GlcNAc(b1-6)]Man(a1-6)[GlcNAc(b1-4)][Gal(b1-4)GlcNAc(b1-2)Man(a1-3)]Man(b1-4)GlcNAc(b1-4)GlcNAc
# Method in brief: as §1
# [3] = target: Gal(b1-4)GlcNAc(b1-2)[Gal(b1-4)GlcNAc(b1-6)]Man(a1-6)[GlcNAc(b1-4)][Gal(b1-4)GlcNAc(b1-2)[Gal(b1-4)GlcNAc(b1-4)]Man(a1-3)]Man(b1-4)GlcNAc(b1-4)[Fuc(a1-6)]GlcNAc
# Method in brief: as §1
# [4] = target: Gal(b1-4)GlcNAc(b1-3)Gal(b1-3)GalNAc
# Method in brief: as §1
# [5] = target: Gal(b1-4)GlcNAc(b1-3)Gal(b1-3)GlcNAc
# Method in brief: as §1
# [6] = target: Gal(b1-4)GlcNAc(b1-3)Gal(b1-4)Glc
# Method in brief: as §1
# [7] = target: Gal(b1-4)GlcNAc(b1-3)Gal(b1-4)GlcNAc
# Method in brief: as §1
# [8] = target: Gal(b1-4)GlcNAc(b1-3)Gal(b1-4)GlcNAc(b1-2)Man(a1-3)[Gal(b1-4)GlcNAc(b1-3)Gal(b1-4)GlcNAc(b1-2)Man(a1-6)]Man(b1-4)GlcNAc(b1-4)GlcNAc
# Method in brief: as §1
# [9] = target: Gal(b1-4)GlcNAc(b1-3)Gal(b1-4)GlcNAc(b1-2)Man(a1-3)[Gal(b1-4)GlcNAc(b1-3)Gal(b1-4)GlcNAc(b1-2)Man(a1-6)]Man(b1-4)GlcNAc(b1-4)[Fuc(a1-6)]GlcNAc
# Method in brief: as §1
# [10] = target: Gal(b1-4)GlcNAc(b1-3)Gal(b1-4)GlcNAc(b1-2)[Gal(b1-4)GlcNAc(b1-3)Gal(b1-4)GlcNAc(b1-6)]Man(a1-6)[Gal(b1-4)GlcNAc(b1-3)Gal(b1-4)GlcNAc(b1-2)Man(a1-3)]Man(b1-4)GlcNAc(b1-4)GlcNAc
# Method in brief: as §1
# [11] = target: Gal(b1-4)GlcNAc(b1-3)Gal(b1-4)GlcNAc(b1-2)[Gal(b1-4)GlcNAc(b1-3)Gal(b1-4)GlcNAc(b1-6)]Man(a1-6)[Gal(b1-4)GlcNAc(b1-3)Gal(b1-4)GlcNAc(b1-2)Man(a1-3)]Man(b1-4)GlcNAc(b1-4)[Fuc(a1-6)]GlcNAc
# Method in brief: as §1
# [12] = target: Gal(b1-4)GlcNAc(b1-3)Gal(b1-4)GlcNAc(b1-3)Gal(b1-4)GlcNAc
# Method in brief: as §1
# [13] = target: Gal(b1-4)GlcNAc(b1-3)Gal(b1-4)GlcNAc(b1-3)Gal(b1-4)GlcNAc(b1-2)Man(a1-3)[Gal(b1-4)GlcNAc(b1-3)Gal(b1-4)GlcNAc(b1-3)Gal(b1-4)GlcNAc(b1-2)Man(a1-6)]Man(b1-4)GlcNAc(b1-4)GlcNAc
# Method in brief: as §1
# [14] = target: Gal(b1-4)GlcNAc(b1-3)Gal(b1-4)GlcNAc(b1-3)Gal(b1-4)GlcNAc(b1-2)Man(a1-3)[Gal(b1-4)GlcNAc(b1-3)Gal(b1-4)GlcNAc(b1-3)Gal(b1-4)GlcNAc(b1-2)Man(a1-6)]Man(b1-4)GlcNAc(b1-4)[Fuc(a1-6)]GlcNAc
# Method in brief: as §1
# [15] = target: Gal(b1-4)GlcNAc(b1-3)Gal(b1-4)GlcNAc(b1-3)Gal(b1-4)GlcNAc(b1-2)[Gal(b1-4)GlcNAc(b1-3)Gal(b1-4)GlcNAc(b1-3)Gal(b1-4)GlcNAc(b1-6)]Man(a1-6)[Gal(b1-4)GlcNAc(b1-3)Gal(b1-4)GlcNAc(b1-3)Gal(b1-4)GlcNAc(b1-2)Man(a1-3)]Man(b1-4)GlcNAc(b1-4)[Fuc(a1-6)]GlcNAc
# Method in brief: as §1
# [16] = target: Gal(b1-4)GlcNAc(b1-3)Gal(b1-4)GlcNAc(b1-3)Gal(b1-4)GlcNAc(b1-3)Gal(b1-4)GlcNAc(b1-2)Man(a1-3)[Gal(b1-4)GlcNAc(b1-3)Gal(b1-4)GlcNAc(b1-3)Gal(b1-4)GlcNAc(b1-3)Gal(b1-4)GlcNAc(b1-2)Man(a1-6)]Man(b1-4)GlcNAc(b1-4)GlcNAc
# Method in brief: as §1
# [17] = target: Gal(b1-4)GlcNAc(b1-3)Gal(b1-4)GlcNAc(b1-3)Gal(b1-4)GlcNAc(b1-3)Gal(b1-4)GlcNAc(b1-2)Man(a1-3)[Gal(b1-4)GlcNAc(b1-3)Gal(b1-4)GlcNAc(b1-3)Gal(b1-4)GlcNAc(b1-3)Gal(b1-4)GlcNAc(b1-2)Man(a1-6)]Man(b1-4)GlcNAc(b1-4)[Fuc(a1-6)]GlcNAc
# Method in brief: as §1
# [18] = target: Gal(b1-4)GlcNAc(b1-3)Gal(b1-4)GlcNAc(b1-3)Gal(b1-4)GlcNAc(b1-3)Gal(b1-4)GlcNAc(b1-2)[Gal(b1-4)GlcNAc(b1-3)Gal(b1-4)GlcNAc(b1-3)Gal(b1-4)GlcNAc(b1-3)Gal(b1-4)GlcNAc(b1-6)]Man(a1-6)[Gal(b1-4)GlcNAc(b1-3)Gal(b1-4)GlcNAc(b1-3)Gal(b1-4)GlcNAc(b1-3)Gal(b1-4)GlcNAc(b1-2)Man(a1-3)]Man(b1-4)GlcNAc(b1-4)[Fuc(a1-6)]GlcNAc
# Method in brief: as §1
# [19] = target: Gal(b1-4)GlcNAc(b1-3)Gal(b1-4)GlcNAc(b1-3)Gal(b1-4)GlcNAc(b1-3)Gal(b1-4)GlcNAc(b1-3)Gal(b1-4)GlcNAc(b1-2)Man(a1-3)[Gal(b1-4)GlcNAc(b1-3)Gal(b1-4)GlcNAc(b1-3)Gal(b1-4)GlcNAc(b1-3)Gal(b1-4)GlcNAc(b1-3)Gal(b1-4)GlcNAc(b1-2)Man(a1-6)]Man(b1-4)GlcNAc(b1-4)GlcNAc
# Method in brief: as §1
# [20] = target: Gal(b1-4)GlcNAc(b1-3)Gal(b1-4)GlcNAc(b1-3)Gal(b1-4)GlcNAc(b1-3)Gal(b1-4)GlcNAc(b1-3)Gal(b1-4)GlcNAc(b1-2)Man(a1-3)[Gal(b1-4)GlcNAc(b1-3)Gal(b1-4)GlcNAc(b1-3)Gal(b1-4)GlcNAc(b1-3)Gal(b1-4)GlcNAc(b1-3)Gal(b1-4)GlcNAc(b1-2)Man(a1-6)]Man(b1-4)GlcNAc(b1-4)[Fuc(a1-6)]GlcNAc
# Method in brief: as §1
# [21] = target: Gal(b1-4)GlcNAc(b1-3)Gal(b1-4)GlcNAc(b1-3)Gal(b1-4)GlcNAc(b1-3)Gal(b1-4)GlcNAc(b1-3)Gal(b1-4)GlcNAc(b1-2)[Gal(b1-4)GlcNAc(b1-3)Gal(b1-4)GlcNAc(b1-3)Gal(b1-4)GlcNAc(b1-3)Gal(b1-4)GlcNAc(b1-3)Gal(b1-4)GlcNAc(b1-6)]Man(a1-6)[Gal(b1-4)GlcNAc(b1-3)Gal(b1-4)GlcNAc(b1-3)Gal(b1-4)GlcNAc(b1-3)Gal(b1-4)GlcNAc(b1-3)Gal(b1-4)GlcNAc(b1-2)Man(a1-3)]Man(b1-4)GlcNAc(b1-4)[Fuc(a1-6)]GlcNAc
# Method in brief: as §1
# [22] = target: Gal(b1-4)GlcNAc(b1-3)Gal(b1-4)GlcNAc(b1-3)Gal(b1-4)GlcNAc(b1-3)Gal(b1-4)GlcNAc(b1-3)Gal(b1-4)GlcNAc(b1-3)Gal(b1-4)GlcNAc(b1-2)Man(a1-3)[Gal(b1-4)GlcNAc(b1-3)Gal(b1-4)GlcNAc(b1-3)Gal(b1-4)GlcNAc(b1-3)Gal(b1-4)GlcNAc(b1-3)Gal(b1-4)GlcNAc(b1-3)Gal(b1-4)GlcNAc(b1-2)Man(a1-6)]Man(b1-4)GlcNAc(b1-4)GlcNAc
# Method in brief: as §1
# [23] = target: Gal(b1-4)GlcNAc(b1-3)Gal(b1-4)GlcNAc(b1-3)GalNAc
# Method in brief: as §1
binder,measurement,setting,value
"Langerin (Homo sapiens), Q9UJ71 (protein) STLNAQIPELKSDLEKASALNTKIRALQGSLENMSKLLKRQNDILQVVSQGWKYFKGNFYYFSLIPKTWYSAEQFCVSRNSHLTSVTSESEQEFLYKTAGGLIYWIGLTKAGMEGDWSWVDDTPFNKVQSARFWIPGEPNDAGNNEHCGNIKAPSLQAWNDAPCDITFLFICKRPYVPSEP",glycan array binding signal (z-score),[1],0.022
same,glycan array binding signal (z-score),[2],-0.202
same,glycan array binding signal (z-score),[3],0.023
same,glycan array binding signal (z-score),[4],-0.105
same,glycan array binding signal (z-score),[5],-0.016
same,glycan array binding signal (z-score),[6],-0.175
same,glycan array binding signal (z-score),[7],-0.254
same,glycan array binding signal (z-score),[8],0.133
same,glycan array binding signal (z-score),[9],0.022
same,glycan array binding signal (z-score),[10],0.277
same,glycan array binding signal (z-score),[11],0.286
same,glycan array binding signal (z-score),[12],-0.349
same,glycan array binding signal (z-score),[13],0.142
same,glycan array binding signal (z-score),[14],0.102
same,glycan array binding signal (z-score),[15],0.208
same,glycan array binding signal (z-score),[16],-0.144
same,glycan array binding signal (z-score),[17],-0.185
same,glycan array binding signal (z-score),[18],0.313
same,glycan array binding signal (z-score),[19],0.257
same,glycan array binding signal (z-score),[20],-0.155
same,glycan array binding signal (z-score),[21],0.74
same,glycan array binding signal (z-score),[22],0.914
same,glycan array binding signal (z-score),[23],-0.157
